Test results as given in publication PMC4336329 (PLoS ONE, 2015).
About 14,000 (4.5%) of roughly 310,000 compounds showed an effect of 50% or more. The effect is printed as a negative number. This is one part of the list.

Each molecule was assayed against human ether-à-go-go-related gene (hERG) potassium channel (human, UniProt Q12809) (assay: primary screen, population patch clamp on CHO cells stably expressing hERG).
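Further: peak tail current of the secondary pulse compared with the same well before compound.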

Chain of human ether-à-go-go-related gene (hERG) potassium channel (Q12809 whole entry, looked up): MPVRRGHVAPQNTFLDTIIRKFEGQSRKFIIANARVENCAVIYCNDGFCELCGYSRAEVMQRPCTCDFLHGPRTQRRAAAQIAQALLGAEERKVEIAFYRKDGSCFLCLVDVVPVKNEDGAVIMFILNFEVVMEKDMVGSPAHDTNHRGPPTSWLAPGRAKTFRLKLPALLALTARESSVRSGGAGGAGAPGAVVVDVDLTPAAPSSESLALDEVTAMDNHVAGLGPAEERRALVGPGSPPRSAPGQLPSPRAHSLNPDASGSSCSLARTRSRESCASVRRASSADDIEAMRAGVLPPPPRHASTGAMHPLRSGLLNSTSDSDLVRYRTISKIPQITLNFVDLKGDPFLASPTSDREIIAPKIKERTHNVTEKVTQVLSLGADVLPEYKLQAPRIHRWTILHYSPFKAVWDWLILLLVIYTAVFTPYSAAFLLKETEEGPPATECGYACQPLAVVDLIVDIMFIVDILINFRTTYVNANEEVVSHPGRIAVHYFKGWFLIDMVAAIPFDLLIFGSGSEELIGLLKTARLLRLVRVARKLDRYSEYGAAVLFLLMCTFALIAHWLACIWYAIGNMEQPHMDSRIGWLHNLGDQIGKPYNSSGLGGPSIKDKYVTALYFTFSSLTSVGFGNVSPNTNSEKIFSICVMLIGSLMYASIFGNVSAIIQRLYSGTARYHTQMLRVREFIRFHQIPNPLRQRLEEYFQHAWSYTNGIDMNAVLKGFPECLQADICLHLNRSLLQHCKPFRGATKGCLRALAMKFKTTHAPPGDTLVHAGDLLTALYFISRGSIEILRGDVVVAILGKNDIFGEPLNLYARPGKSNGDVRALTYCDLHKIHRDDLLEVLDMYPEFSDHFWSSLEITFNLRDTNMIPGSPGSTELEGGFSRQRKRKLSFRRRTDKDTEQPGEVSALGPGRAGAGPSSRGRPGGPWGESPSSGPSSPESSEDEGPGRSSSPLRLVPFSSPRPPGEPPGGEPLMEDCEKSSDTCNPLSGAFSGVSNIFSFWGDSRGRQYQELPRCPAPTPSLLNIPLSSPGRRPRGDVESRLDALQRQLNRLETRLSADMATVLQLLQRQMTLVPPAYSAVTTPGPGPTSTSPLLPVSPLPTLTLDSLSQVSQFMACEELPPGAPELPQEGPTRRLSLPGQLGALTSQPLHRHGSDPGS

Compared with CC(C)CCNC(=O)c1c(N)n(Cc2ccc3c(c2)OCO3)c2nc3ccccc3nc12, O=C(NCc1ccc2c(c1)OCO2)c1c(O)nc2sccn2c1=O is lower in “hERG current change (%, negative = inhibition) at 10uM” value: 4.13% for the first, -1.82% for the second.

First: COc1cc(NC(=S)NC(C)(C)C)c(OC)cc1Cl
Second: COc1ccc(/C=N/NC(=O)CCc2c(C)n[nH]c2C)cc1OC
The “hERG current change (%, negative = inhibition) at 10uM” value of the first is lower: 1.18% for the first, 18.8% for the second.

CS(=O)(=O)c1ccc(C(=O)NC2CCCCC2)cc1 and Cc1ccc(C(OC(=O)c2ccco2)C(=O)NC2CCCCC2)cc1 (stereo not shown) are the same in “hERG current change (%, negative = inhibition) at 10uM” value: 12.1% for the first, 12.1% for the second.

Compared with CCCCn1c(N)c(N(CC(C)C)C(=O)c2cccc(S(=O)(=O)N(C)c3ccc(C)cc3)c2)c(=O)[nH]c1=O, CCCc1nc2ccccc2c(C(=O)OCC(=O)Nc2c(C)n(C)n(-c3ccccc3)c2=O)c1CC is higher in “hERG current change (%, negative = inhibition) at 10uM” value: -1.62% for the first, 0.724% for the second.

Compared with Cc1nc2ncnn2c(C)c1CCC(=O)N1CCCCC1, Cc1ccc(NC(=O)CCc2c(C)nn(-c3ccc(N4CCOCC4)nn3)c2C)cc1C is higher in “hERG current change (%, negative = inhibition) at 10uM” value: -2.79% for the first, 3.81% for the second.

Compared with S=C(NCc1ccccc1)N1CCN(C(=S)NCc2ccccc2)CC1, CC(CCc1ccccc1)NC(=S)NC(=O)c1ccco1 (stereo not shown) is lower in “hERG current change (%, negative = inhibition) at 10uM” value: 12.9% for the first, -19.5% for the second.

First: O=C(NCCCn1ccnc1)c1nn2c(C(F)(F)F)cc(-c3ccc(Br)cc3)nc2c1Cl
Second: O=C(CSc1nnc(-c2ccccn2)n1Cc1ccco1)c1ccc(Cl)cc1
The “hERG current change (%, negative = inhibition) at 10uM” value of the first is lower: -65.7% for the first, -43.1% for the second.

Going from COc1ccc(C(=O)NNC(=O)CSc2nnc(C)n2C)cc1 to COc1ccc(S(=O)(=O)Nc2ncccn2)cc1, the “hERG current change (%, negative = inhibition) at 10uM” value falls from 21.7% to 10.7%.

Compared with Nc1ccc(NC(=O)Nc2ccc(N)cc2)cc1, COc1ccc(OP(=O)(Nc2ccccc2)Nc2ccccc2)cc1 is lower in “hERG current change (%, negative = inhibition) at 10uM” value: 15.9% for the first, -13.8% for the second.

Compared with CN(CC(=O)Nc1ccccc1Cl)C(=O)COC(=O)CCN1C(=O)C2CC=CCC2C1=O (stereo not shown), CCOc1ccc(NC(=O)COC(=O)Cc2ccc(S(=O)(=O)N3CCOCC3)s2)cc1 is lower in “hERG current change (%, negative = inhibition) at 10uM” value: 13.3% for the first, -6.18% for the second.

Compared with Cc1ccc(N2Cc3ccccc3C2=S)cc1, O=c1cc(-c2ccccc2F)oc2ccccc12 is higher in “hERG current change (%, negative = inhibition) at 10uM” value: -19.6% for the first, -10.8% for the second.

Going from CCCc1nc(N2CCOCC2)c(C#N)c2c1CCCC2 to CC1CCCC(NC(=O)Cn2cc3c(n2)CCCCC3)C1C (stereo not shown), the “hERG current change (%, negative = inhibition) at 10uM” value falls from 1.31% to 0.213%.

Going from COc1cccc(C(=O)NC2CCCc3ccccc32)c1OC (stereo not shown) to CSc1ncccc1C(=O)NC1CC(C)(C)Cc2c1cnn2-c1ccccc1C (stereo not shown), the “hERG current change (%, negative = inhibition) at 10uM” value falls from -1.84% to -7.58%.

Going from COc1cccc2cc(C(=O)OCC(=O)NCc3ccc4c(c3)OCO4)c(=O)oc12 to CCN(CC(=O)Nc1c(F)cccc1F)C(=O)Cc1ccc2c(c1)OCCO2, the “hERG current change (%, negative = inhibition) at 10uM” value falls from 2.02% to -3.07%.

First: O=C(NCC1CCCO1)C(=O)N/N=C/c1ccc(OCc2ccccc2Cl)cc1 (stereo not shown)
Second: CCC(OC(=O)c1nsc(Cl)c1Cl)C(=O)NCC1CCCO1 (stereo not shown)
The “hERG current change (%, negative = inhibition) at 10uM” value of the first is lower: 0.8% for the first, 5.94% for the second.

Compared with CC(=O)n1cc([C@@H]2C=C(C(=O)Nc3ccccc3)O[C@H](OCc3ccc(CO)cc3)C2)c2ccccc21, COc1ccc(CN(Cc2ccc(C(=O)O)cc2)C(=S)Nc2cccc(C)c2)cc1OC is higher in “hERG current change (%, negative = inhibition) at 10uM” value: -29.7% for the first, 19.7% for the second.

Going from CN1C=CC2=C(C#N)C(N)C(C#N)(C#N)C(c3ccccc3)C2C1 (stereo not shown) to c1ccc2c(CNn3cnnc3)cccc2c1, the “hERG current change (%, negative = inhibition) at 10uM” value falls from 9.49% to 9.16%.

Going from CC(=O)Nc1nc(C)c(-c2nc3ccc([N+](=O)[O-])cc3[nH]2)s1 to CC(=O)Nc1cc(C)c2nc(NC(C)=O)sc2c1, the “hERG current change (%, negative = inhibition) at 10uM” value rises from 13.9% to 14%.

First: O=c1oc2ccccc2cc1-c1nc2c(s1)CCCC2
Second: O=C1CCCC2=C1C(c1ccccc1O)C1=C(CCCC1=O)O2
The “hERG current change (%, negative = inhibition) at 10uM” value of the first is higher: 4.04% for the first, -5.36% for the second.

Going from CCOC(=O)c1c(C)[nH]c(N=Nc2ccc(C)cc2C)c1C to Cc1ccc(N=Nc2c(N)nn3c(C)cc(C)nc23)cc1, the “hERG current change (%, negative = inhibition) at 10uM” value falls from 13.5% to -12.5%.

First: Cc1cnc(C(=O)N2CCCC(C(=O)c3ccc(C(C)(C)C)cc3)C2)cn1 (stereo not shown)
Second: COc1ccc(C2OC(=O)CC2C(=O)N2CCN(c3cc(Cl)ccc3C)CC2)cc1OC (stereo not shown)
The “hERG current change (%, negative = inhibition) at 10uM” value of the first is higher: -20.7% for the first, -36% for the second.

Compared with Cc1cccc(N2CCN(c3ccc(C(N)=O)cc3[N+](=O)[O-])CC2)c1C, CC(=O)c1ccc([N+](=O)[O-])c(CS(=O)(=O)c2ccccc2)c1 is lower in “hERG current change (%, negative = inhibition) at 10uM” value: 21.7% for the first, 18.1% for the second.

First: COc1ccc2oc(C(=O)OCC(=O)NC(C)(C#N)C3CC3)c(C)c2c1 (stereo not shown)
Second: Cc1cc(C)c(C#N)c(SCc2ccccc2C(=O)O)n1
The “hERG current change (%, negative = inhibition) at 10uM” value of the first is higher: 3.21% for the first, -0.731% for the second.

Going from O=C1C(Cl)=C(Nc2ccccc2O)C(=O)N1c1ccccc1 to NC(=O)CSc1nc(O)cc(=O)n1-c1ccccc1, the “hERG current change (%, negative = inhibition) at 10uM” value rises from 0.891% to 12.4%.

Compared with O=C(NCc1cccnc1)/C(=C/c1ccco1)NC(=O)c1ccccc1, N#Cc1nc(COc2ccccc2Cl)oc1NCc1ccco1 is higher in “hERG current change (%, negative = inhibition) at 10uM” value: -58.6% for the first, 3.28% for the second.

Going from O=C(Nc1nnc(C2COc3ccccc3O2)o1)c1ccc(F)cc1 (stereo not shown) to OC(Cn1cncn1)(c1ccc(F)cc1)c1ccc(Cl)cc1 (stereo not shown), the “hERG current change (%, negative = inhibition) at 10uM” value falls from 10.5% to 8.7%.

Compared with CC(=NCC1CCCO1)c1c(O)n(Cc2ccccc2)c(=O)[nH]c1=O (stereo not shown), CC(=O)[O-].[K+].c1ccc2c(c1)OCCOCCOc1ccccc1OCCOCCO2 is lower in “hERG current change (%, negative = inhibition) at 10uM” value: -17.9% for the first, -74.7% for the second.

First: Cn1c(=O)c2c(nc3n2CCS3)n(C)c1=O
Second: O=C1CSc2ccc(S(=O)(=O)NCc3ccc(Cl)cc3)cc2N1
The “hERG current change (%, negative = inhibition) at 10uM” value of the first is lower: -7.13% for the first, 2.19% for the second.

Going from CCCCC(=O)NNC(=S)NC(=O)CCC to COc1ccc(C2CC(c3ccc(Cl)cc3Cl)Nc3nc(N)nn32)cc1 (stereo not shown), the “hERG current change (%, negative = inhibition) at 10uM” value falls from 12.4% to -41.3%.
